In ChEMBL document CHEMBL4888484, “Replenishing the malaria drug discovery pipeline: Screening and hit evaluation of the MMV Hit Generation Library 1 (HGL1) against asexual blood stage Plasmodium falciparum ,using a nano luciferase reporter read-out” (2022):
Out of some 4,800 compounds screened, about 410 (8.5%) showed an effect of 50% or more. This is one part of the list. Where a SMILES comes first, the peptide text is derived from it. The star is where a group is joined. NHPhenethyl = c1ccc(CCN*)cc1

system: Plasmodium falciparum; assay: Confirmatory screen in NF54 pLDH assay, in single point, at 2uM, 72h; format: functional, Erythrocyte; details: timepoint 72 hour

SMILES | % Inhibition
Oc1ccc(-c2nnc(-c3ccc(O)cc3)nn2)cc1 | 22%
O=C1CCN(C(=O)C2(c3cccc(Cl)c3)CCCC2)CCN1 | -8%
COc1ccc(-c2cn(-c3ccc(OC)cc3)c(N)c2C#N)cc1 | -6%
Cc1oc(-c2ccc(C(=O)N3CCN(c4ccccc4)CC3)cc2)nc1CN1CCC(C)CC1 | 36%
c1ccc2c(CCNC3(c4nnnn4CCCN4CCOCC4)CCCC3)c[nH]c2c1 | 6%
O=C1CC(C(=O)NC[C@H]2C[C@@H]2C2CCC2)CN1 (stereo partly drawn) | 0%
CCc1cc(C(=O)N[C@@H](C)c2ccccc2)c2c(C3CC3)nn(Cc3ccccc3)c2n1 | -7%
Cc1ccc(S(=O)(=O)Cc2nc(-c3ccc(C(=O)NCc4ccc(C)o4)cc3)oc2C)cc1 | -13%
Cc1cccnc1C(F)(F)C(=O)Nc1cc(C)c(O)c(C)c1 | 11%
Cc1ccc(OCCNc2cc([C@H]3C[C@H](N)C3)nc(C3CC3)n2)cc1C | 25%
Cc1nc2sc(C(=O)Nc3ccc4ccccc4c3)c(N)c2c(C)c1C | 9%
CNC(=O)NCc1ccccc1S(C)(=O)=O | 8%
CC[C@@H](CO)NCc1cccc(OC)c1OCC(=O)NC(C)(C)C | -12%
OCCNCc1c(Cl)cccc1Cl | 4%
Cc1ccc(CCC(=O)N2CC[C@H](C)S(=O)(=O)CC2)s1 | 9%
O=C(Nc1ccccc1)OCc1ccc(-c2ccc(Cl)cc2)o1 | 11%
COc1cc(C(=O)Nc2[nH]c(=O)ncc2F)ccc1Cl | 68%
Cc1nn(C)c(C)c1OCc1nnc(C2CCC2)n1C | -13%
Cc1ccc(NC(=O)COC(=O)c2nccc3ccccc23)cc1 | 11%
N#Cc1c(-c2ccco2)ccn(Cc2ccc(F)cc2)c1=O | 8%
C[C@H]1CN(c2ccc(N(C)C)cc2)C(=O)NC1=O | 6%
C[C@H](NC(=O)C1CC1c1ccccc1)[C@H](O)c1ccc2c(c1)OCO2 (stereo partly drawn) | 11%
Cn1c(=O)c2c(nc3nc(N4CCOCC4)n(CC(=O)c4ccc(Cl)cc4)n32)n(C)c1=O | 0%
CC(N)C(=O)NC(C)C(=O)NCCc1ccccc1 (stereo not drawn) (H-Ala-Ala-NHPhenethyl; configuration not given here) | -3%
N#Cc1cc(Br)cc(Cl)c1O | 7%
COc1ccc(CNC(=O)c2ccc(N3C(=O)[C@@H]4Cc5c([nH]c6ccccc56)C(c5cccc(OC)c5)N4C3=O)cc2)cc1 (stereo partly drawn) | 32%

SMILES | % Inhibition
Cc1oc(-c2ccn[nH]2)cc1S(=O)(=O)Nc1ccc(F)c(Cl)c1 | 0%
Cc1cccc(CN(Cc2ccccn2)C(=O)Cn2c(C)cc(O)cc2=O)c1 | 11%
Cc1ccc(S(=O)(=O)N2C[C@@H]3CCCN3c3ccc(C(F)(F)F)cc32)cc1 | -18%
N#Cc1nc(NC(=O)c2cc3c(s2)CCOC3)[nH]c1C#N | 6%
O=C(c1ccccc1)c1ccc2n1CC[C@H]2C(=O)Nc1ccccc1C(F)(F)F | 8%
COc1cc(N)ccc1OCC(F)F | 11%
COc1ccc(Nc2nnc(-c3ccc(NC(=O)C(=O)NCCCn4ccnc4)cc3)s2)cc1 | 76%
CC[C@@H](c1ccncc1)N(C)Cc1cc(-c2ccc(Cl)cc2)no1 | -1%
Cc1nc([C@H](C)NC(=O)c2ccc(S(C)(=O)=O)cc2)cs1 | 8%
Nc1nccnc1C(=O)N(Cc1ccccc1)C[C@]1(O)CCc2ccccc21 | -3%
NC(=O)c1ccc(NC(=O)N2CCc3c(F)ccc(F)c3C2)c(F)c1 | -23%
Cc1c(N2CCC(C(=O)NC[C@H]3CCCO3)CC2)c(=O)n(CC(C)C)c(=O)n1-c1ccccc1 | 4%
Cc1csc([C@@H](C#N)C(=O)c2ccncc2)n1 | -6%
CCOc1ccc(Cn2cncn2)nc1 | -9%
O=S(=O)(C1CC1)N1CC[C@H](CO)C1 | 0%
CCCn1cc(CNc2nnc(C(C)(C)C)o2)cn1 | -2%
Cc1ccccc1N1CCN(C(=O)c2ccc3ncccc3c2)CC1 | 9%
CNc1nc(C)cc(C(=O)Nc2ccnn2C[C@H]2CCOC2)n1 | 0%
Cc1ccc(Nc2ccc(N3CCNCC3)nn2)nc1 | 58%
Cc1cc(=O)n(Cc2ccccc2)c2c(C)cccc12 | 12%
O=C(Nc1cnc2ccccc2c1)c1ccccc1C(=O)c1ccc(F)cc1 | 94%
C=C1C(C)C2C(Cc3c[nH]c4ccccc34)NC(=O)C23C(=O)CC(O)C(O)CC(C)C/C=C/C3C1O (stereo not drawn) | 65%
COc1cccc(CNC(=O)[C@H]2CCCN(c3nc4cccnc4n(C)c3=O)C2)c1OC | 1%
Cc1ccccc1N1C(O)=Nc2ccccc2S1(=O)=O | -19%
Cc1cc(NC(=O)C(C)N2CCOC(c3nc(C(C)C)n[nH]3)C2)on1 (stereo not drawn) | 0%
O=C(CN1CCC[C@H](O)C1)NCC1(N2CCOCC2)CCCCC1 | -8%

SMILES | % Inhibition
CC1(C)N=C(c2ccc(C(C)(C)C)cc2)C(=O)N1 | 13%
COCc1nncn1C1CN(C(=O)CCc2ccccc2OC)C1 | -10%
Cc1cc(C(=O)Nc2ccc(Br)c(C)n2)no1 | -20%
O=C(Cc1c[nH]c2ccccc12)N1CCc2ccccc2C1 | -17%
O=S(=O)(Cc1ccccc1)Nc1nnc[nH]1 | 4%
Cc1c(-c2nn(-c3ccccc3)c(-c3cnn(C)c3C)c2Cl)cnn1C | -6%
Cc1[nH]ncc1CCCNCc1cccc(O)c1 | 4%
Cc1cc(C)n2c(-c3ccccc3C)nnc2n1 | -1%
CC(C)CCn1c(=O)c2sccc2n(CC(=O)N(C)c2ccccc2)c1=O | 11%
CCCc1cnc(NC(=O)c2cnn(C)c2C)s1 | 7%
O=C1NC(=O)[C@]2(CCOc3ccc(F)cc32)N1 | 4%
COCCOC(=O)c1cc(C(F)(F)F)cc(C(=O)OCCOC)n1 | 11%
O=C(c1cnc(Nc2nc3ccccc3o2)nc1)N1CCN(c2ccccc2)CC1 | 10%
CC(C)=CCN1CC[C@]2(CCCO2)CCC1=O | 10%
O=C(NCC(=O)N(C[C@H]1CCCO1)C1(C(=O)NC2CCCCC2)CCCCC1)c1ccccc1 | -8%
O=C(Nc1nc(-c2cccc3ccccc23)cs1)c1c(Cl)cccc1Cl | -25%
COc1ccc(-c2cnn3c(-c4ccccn4)ccnc23)cc1OC | 4%
CC(C)[C@@H]1CC[C@H](C)C[C@H]1OC(=O)Cn1cc(-c2ccc(Cl)cc2)[n+]2c1CCC2 | 75%
CC1CCC(C)(NC(=O)Nc2ccn(C(C)C)n2)CC1 (stereo not drawn) | -15%
COC(=O)C(C)CN1CCCC(n2ccc(C(F)(F)F)n2)C1 (stereo not drawn) | 8%
O=C1CCCC1C1COCCN1Cc1ncsc1Br (stereo not drawn) | 7%
O=C(NCc1cc(F)cc(F)c1)c1csc(C(=O)NC2CC2)n1 | -3%
O=C(COc1ccc(Cl)cc1Cl)Nc1onc2c1CCC2 | 16%
CCCn1c(C)ccc(-c2noc(CCC(=O)NC3CCCC3)n2)c1=O | -5%
O=C(Cc1cccs1)NC1CCN(c2nnc3ccc(Cl)cn23)CC1 | -10%
COc1ccc(Cn2nc(C)n(-c3cccc(F)c3)c2=O)cc1 | 12%

SMILES | % Inhibition
O=C(COc1nnc2ccccn12)NC1CCCCCC1 | 8%
Cc1ccccc1[C@H]1CCN(c2ccc(NC(=O)c3ccc(Cl)cc3)c(C(=O)O)c2)C1 | -17%
COc1ccsc1S(=O)(=O)N1CCC(n2ccnc2)CC1 | -14%
COc1ccc(N2CCN(C(=O)c3ccccc3Cl)[C@@H](C)C2=O)cc1OC | -8%
COC(=O)c1ccc(C)c(NC(=O)c2ocnc2C2CC2)c1 | 14%
COC(=O)[C@](Nc1ccc(Oc2ccccc2)cc1)(c1cc(C)c(O)c(C)c1)C(F)(F)F | 7%
Cc1nccc(N(C)C2CC(Oc3ccccc3)C2(C)C)n1 (stereo not drawn) | -12%
Cc1ccccc1[C@H]1CCN(c2ccc(NC(=O)c3ccc(F)cc3)c(C(=O)O)c2)C1 | -12%
CN(C)c1ccc2c(c1)CN(C(=O)c1ccccc1S(C)(=O)=O)CC2 | -5%
CCOc1cc(C(=O)Nc2ccc3nc4c(c(Nc5ccc(OC)c(OC)c5)c3c2)CCCC4)cc(OCC)c1OCC | 103%
Cc1noc(Cl)c1CC(=O)N1CCCC(C)(C)CC1 | 20%
O=S(=O)(c1ccc2c(c1)OCCO2)N1CCO[C@H](c2ccc(F)cc2)C1 | 11%
Cc1cccc(OCc2nn3c([C@H]4CCCN(S(C)(=O)=O)C4)nnc3s2)c1 | 6%
CC1(C)C(=O)NCCN1C(=O)c1cccc2ccccc12 | 14%
Cc1cc(C(=O)N2CCN(C(=O)C(C)C)[C@@H]3CS(=O)(=O)C[C@@H]32)nc(C)n1 | -7%
COc1ccc(C(=O)N2c3ncnn3C(c3ccccc3)CC2c2ccc(C)cc2)cc1OC (stereo not drawn) | 98%
O=C(COc1ccccc1O)NC1CC1c1cccc(Cl)c1 (stereo not drawn) | 15%
COc1cc(C)c2[nH]c3c(c(=O)c2c1)CN(CC(=O)Nc1ccc2c(c1)OCO2)CC3 | 6%
Cc1ccc(CN2C(=O)[C@@H]3CCCN3c3ccc(C(F)(F)F)cc32)cc1 | -7%
Cc1cccc(-c2nc3nc(C)c(CC(=O)N4CCCCC4)c(C)n3n2)c1 | 7%
CC(C)c1cc(=O)n(Cc2ccccc2Cn2cnc(C(C)C)cc2=O)cn1 | -1%
O=C(CCc1ncc(-c2ccc(Cl)cc2Cl)o1)NC1(C(=O)O)CCCCC1 | -4%
OCC#Cc1ncc(C(F)(F)F)cc1Cl | -19%
COc1ccc(-c2nccn3cc(C(=O)NCC(C)C)nc23)cc1 | 5%
O=C1NC2(CCCCCCC2)C(=O)N1CN(C1CCCCC1)C1CC1 | 5%
